The supplement of paper PMC4604168 (melanoma cell lines)
The other results are listed elsewhere or left out. Single values are uncertain, as repeats are few or missing.

Each compound was assayed on SkMel30 (assay: cell count relative to DMSO control; melanoma cells; higher = more viable cells). Conditions: library dose: low library concentration; 72 h.
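Note: cell number obtained by counting DAPI-stained nuclei in high-throughput microscope images with image analysis software, screen run in 1,536-well plates.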

Row | SMILES | cell count [%]
1 | COc1ccc(C2=N[C@@H](c3ccc(Cl)cc3)[C@@H](c3ccc(Cl)cc3)N2C(=O)N2CCNC(=O)C2)c(OC(C)C)c1 [Nutlin-3] + c1cc(-c2cnn3cc(-c4ccc(OCCN5CCCCC5)cc4)cnc23)ccn1 [Dorsomorphin] (first compound 0.1 µM, partner dose 0.4 µM) | 87.1
2 | Cn1c(=O)n(-c2ccc(C(C)(C)C#N)cc2)c2c3cc(-c4cnc5ccccc5c4)ccc3ncc21 + COc1cc(N2CCC(N3CCN(C)CC3)CC2)ccc1Nc1ncc(Cl)c(Nc2ccccc2S(=O)(=O)C(C)C)n1 [NVP-TAE684] (first compound 0.004 µM, partner dose 0.08 µM) | 73
3 | COc1ccc(C2=N[C@@H](c3ccc(Cl)cc3)[C@@H](c3ccc(Cl)cc3)N2C(=O)N2CCNC(=O)C2)c(OC(C)C)c1 [Nutlin-3] + COc1cc2c(Oc3ccc4[nH]c(C)cc4c3F)ncnc2cc1OCCCN1CCCC1 [cediranib] (first compound 0.1 µM, partner dose 0.4 µM) | 95.1
4 | CC(C)C[C@H](NC(=O)[C@H](Cc1ccccc1)NC(=O)c1cnccn1)B(O)O [Bortezomib] + NC(=O)Nc1cc(-c2cccc(F)c2)sc1C(=O)N[C@H]1CCCNC1 [AZD7762] (first compound 0.001 µM, partner dose 0.02 µM) | 113
5 | CC(C)C[C@H](NC(=O)[C@H](Cc1ccccc1)NC(=O)c1cnccn1)B(O)O [Bortezomib] + O=C(O)c1ccc(-c2c[nH]c3ncc(-c4ccccc4)cc23)cc1C1CCCC1 [GSK650394] (first compound 0.001 µM, partner dose 0.16 µM) | 94.7
6 | COc1ccc(C2=N[C@@H](c3ccc(Cl)cc3)[C@@H](c3ccc(Cl)cc3)N2C(=O)N2CCNC(=O)C2)c(OC(C)C)c1 [Nutlin-3] + O=C1NC(=O)/C(=C/c2ccc(-c3ccc(F)cc3O)o2)S1 [AS252424] (first compound 0.1 µM, partner dose 1 µM) | 90.4
7 | Cn1c(=O)n(-c2ccc(C(C)(C)C#N)cc2)c2c3cc(-c4cnc5ccccc5c4)ccc3ncc21 + NCC(=O)Nc1ccc(-n2nc(C(F)(F)F)cc2-c2ccc3c(ccc4ccccc43)c2)cc1 [OSU03012] (first compound 0.004 µM, partner dose 1 µM) | 71.1
8 | CC(C)C[C@H](NC(=O)[C@H](Cc1ccccc1)NC(=O)c1cnccn1)B(O)O [Bortezomib] + O=C(Nc1ccccc1)c1cc([N+](=O)[O-])ccc1Cl [GW9662] (first compound 0.001 µM, partner dose 2 µM) | 79.7
9 | COc1ccc(C2=N[C@@H](c3ccc(Cl)cc3)[C@@H](c3ccc(Cl)cc3)N2C(=O)N2CCNC(=O)C2)c(OC(C)C)c1 [Nutlin-3] + Cn1cc(/C=C2\C(=O)Nc3cccnc32)c2ccccc21 [GW441756] (first compound 0.1 µM, partner dose 0.4 µM) | 96.8
10 | Cn1c(=O)n(-c2ccc(C(C)(C)C#N)cc2)c2c3cc(-c4cnc5ccccc5c4)ccc3ncc21 + OCCn1cc(-c2cnc3nnn(Cc4ccc5ncccc5c4)c3n2)cn1 [PF04217903] (first compound 0.004 µM, partner dose 1 µM) | 87.4
11 | Cc1cn(-c2cc(NC(=O)c3ccc(C)c(Nc4nccc(-c5cccnc5)n4)c3)cc(C(F)(F)F)c2)cn1 [nilotinib] + Oc1nc(-c2ccc(C(F)(F)F)cc2)nc2c1CSCC2 [XAV939] (first compound 0.2 µM, partner dose 2 µM) | 118
12 | COc1ccc(C2=N[C@@H](c3ccc(Cl)cc3)[C@@H](c3ccc(Cl)cc3)N2C(=O)N2CCNC(=O)C2)c(OC(C)C)c1 [Nutlin-3] + CO[C@@H]1[C@H](N(C)C(=O)c2ccccc2)C[C@H]2O[C@]1(C)n1c3ccccc3c3c4c(c5c6ccccc6n2c5c31)C(=O)NC4 [Midostaurin] (first compound 0.1 µM, partner dose 0.08 µM) | 106
13 | COc1ccc(C2=N[C@@H](c3ccc(Cl)cc3)[C@@H](c3ccc(Cl)cc3)N2C(=O)N2CCNC(=O)C2)c(OC(C)C)c1 [Nutlin-3] + C[C@@H]1CCN(C(=O)CC#N)C[C@@H]1N(C)c1ncnc2[nH]ccc12 [CP690550] (first compound 0.1 µM, partner dose 1 µM) | 101
14 | Cc1cn(-c2cc(NC(=O)c3ccc(C)c(Nc4nccc(-c5cccnc5)n4)c3)cc(C(F)(F)F)c2)cn1 [nilotinib] + Cn1cncc1[C@@](N)(c1ccc(Cl)cc1)c1ccc2c(c1)c(-c1cccc(Cl)c1)cc(=O)n2C [tipifarnib] (first compound 0.2 µM, partner dose 0.01 µM) | 86.9
15 | CC(C)C[C@H](NC(=O)[C@H](Cc1ccccc1)NC(=O)c1cnccn1)B(O)O [Bortezomib] + CC(C)CCN1c2nc(Nc3cc(F)c(O)c(F)c3)ncc2N(C)C(=O)C1C [BID1870] (first compound 0.001 µM, partner dose 0.2 µM) | 72
16 | Cc1cn(-c2cc(NC(=O)c3ccc(C)c(Nc4nccc(-c5cccnc5)n4)c3)cc(C(F)(F)F)c2)cn1 [nilotinib] + O=C(CCCCCCC(=O)Nc1ccccc1)NO [vorinostat] (first compound 0.2 µM, partner dose 0.08 µM) | 112
17 | Cn1c(=O)n(-c2ccc(C(C)(C)C#N)cc2)c2c3cc(-c4cnc5ccccc5c4)ccc3ncc21 + O=C1NC(=O)/C(=C/c2ccc(-c3ccc(F)cc3O)o2)S1 [AS252424] (first compound 0.004 µM, partner dose 1 µM) | 94.5
18 | CC(C)C[C@H](NC(=O)[C@H](Cc1ccccc1)NC(=O)c1cnccn1)B(O)O [Bortezomib] + COc1ccc(-c2ccc3c(N4CCOCC4)nc(N4C[C@@H](C)O[C@@H](C)C4)nc3n2)cc1CO [KU0063794] (first compound 0.001 µM, partner dose 0.02 µM) | 80.3
19 | Cc1cc(Nc2cc(N3CCN(C)CC3)nc(/C=C/c3ccccc3)n2)n[nH]1 + CC(C)(C)c1cnc(CSc2cnc(NC(=O)C3CCNCC3)s2)o1 [SNS-032] (first compound 0.04 µM, partner dose 0.01 µM) | 112
20 | Cc1cc(Nc2cc(N3CCN(C)CC3)nc(/C=C/c3ccccc3)n2)n[nH]1 + O=C(O)c1ccc(-c2c[nH]c3ncc(-c4ccccc4)cc23)cc1C1CCCC1 [GSK650394] (first compound 0.04 µM, partner dose 0.16 µM) | 117
21 | Cc1cn(-c2cc(NC(=O)c3ccc(C)c(Nc4nccc(-c5cccnc5)n4)c3)cc(C(F)(F)F)c2)cn1 [nilotinib] + COC(=O)c1sccc1S(=O)(=O)Nc1ccc(Nc2ccccc2)cc1OC [GSK0660] (first compound 0.2 µM, partner dose 1 µM) | 88.9
22 | Cn1c(=O)n(-c2ccc(C(C)(C)C#N)cc2)c2c3cc(-c4cnc5ccccc5c4)ccc3ncc21 + CO[C@@H]1[C@H](N(C)C(=O)c2ccccc2)C[C@H]2O[C@]1(C)n1c3ccccc3c3c4c(c5c6ccccc6n2c5c31)C(=O)NC4 [Midostaurin] (first compound 0.004 µM, partner dose 0.08 µM) | 89.4
23 | Cc1cn(-c2cc(NC(=O)c3ccc(C)c(Nc4nccc(-c5cccnc5)n4)c3)cc(C(F)(F)F)c2)cn1 [nilotinib] + NC(=O)Nc1cc(-c2cccc(F)c2)sc1C(=O)N[C@H]1CCCNC1 [AZD7762] (first compound 0.2 µM, partner dose 0.02 µM) | 95.9
24 | COc1ccc(C2=N[C@@H](c3ccc(Cl)cc3)[C@@H](c3ccc(Cl)cc3)N2C(=O)N2CCNC(=O)C2)c(OC(C)C)c1 [Nutlin-3] + O=c1cc(-c2cccc3c2Sc2ccccc2S3)oc(N2CCOCC2)c1 [KU55933] (first compound 0.1 µM, partner dose 1 µM) | 103
25 | Cc1cn(-c2cc(NC(=O)c3ccc(C)c(Nc4nccc(-c5cccnc5)n4)c3)cc(C(F)(F)F)c2)cn1 [nilotinib] + O=S(=O)(c1ccccc1)N(CC(F)(F)F)c1ccc(C(O)(C(F)(F)F)C(F)(F)F)cc1 [T0901317] (first compound 0.2 µM, partner dose 1.4 µM) | 71.1
26 | Cc1cc(Nc2cc(N3CCN(C)CC3)nc(/C=C/c3ccccc3)n2)n[nH]1 + Cc1ccc(NC(=O)c2cccc(N(C)C)c2)cc1NC(=O)c1ccc(O)cc1 [ZM336372] (first compound 0.04 µM, partner dose 2 µM) | 76.6
27 | Cn1c(=O)n(-c2ccc(C(C)(C)C#N)cc2)c2c3cc(-c4cnc5ccccc5c4)ccc3ncc21 + c1cc(-c2cnn3cc(-c4ccc(OCCN5CCCCC5)cc4)cnc23)ccn1 [Dorsomorphin] (first compound 0.004 µM, partner dose 0.4 µM) | 75.7
28 | COc1ccc(C2=N[C@@H](c3ccc(Cl)cc3)[C@@H](c3ccc(Cl)cc3)N2C(=O)N2CCNC(=O)C2)c(OC(C)C)c1 [Nutlin-3] + Oc1nc(-c2ccc(C(F)(F)F)cc2)nc2c1CSCC2 [XAV939] (first compound 0.1 µM, partner dose 2 µM) | 119
29 | Cc1cc(Nc2cc(N3CCN(C)CC3)nc(/C=C/c3ccccc3)n2)n[nH]1 + CCN(CC)CCCCNc1ncc2cc(-c3cc(OC)cc(OC)c3)c(NC(=O)NC(C)(C)C)nc2n1 [PD173074] (first compound 0.04 µM, partner dose 0.1 µM) | 97.6
